Measurements reported in the supplement of paper PMC8728848.
Some of the results follow.

Columns and labels:
Assay in all cases: glycan array binding signal (z-score within array); higher = stronger binding
Details in all cases: glycan notation: IUPAC condensed, linker removed
[1] = biological target: Gal(b1-3)[Fuc(a1-4)]GlcNAc(b1-3)Gal(b1-4)[Fuc(a1-3)]GlcNAc
Summary of the method: (§1)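 From the Consortium for Functional Glycomics database, 3228 arrays were curated, keeping only those whose protein sequence was available. Binding is given as a within-array Z-score averaged across arrays sharing a protein sequence and across linkers. Negative Z-scores can be read as non-binding.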

[2] = biological target: Gal(b1-3)[GlcNAc(b1-6)]GalNAc
Summary of the method: as §1

[3] = biological target: Gal(b1-3)[Neu5Ac(a2-6)]GalNAc
Summary of the method: as §1

[4] = biological target: Gal(b1-3)[Neu5Ac(a2-6)]GlcNAc(b1-6)Gal(b1-4)Glc
Summary of the method: as §1

[5] = biological target: Gal(b1-3)[Neu5Ac(b2-6)]GalNAc
Summary of the method: as §1

[6] = biological target: Gal(b1-4)GalNAc(a1-3)[Fuc(a1-2)]Gal(b1-4)GlcNAc
Summary of the method: as §1

[7] = biological target: Gal(b1-4)GalNAc(b1-3)[Fuc(a1-2)]Gal(b1-4)GlcNAc
Summary of the method: as §1

[8] = biological target: Gal(b1-4)Glc
Summary of the method: as §1

[9] = biological target: Gal(b1-4)Glc6S
Summary of the method: as §1

[10] = biological target: Gal(b1-4)GlcNAc
Summary of the method: as §1

[11] = biological target: Gal(b1-4)GlcNAc(b1-2)Man(a1-3)[Gal(b1-4)GlcNAc(b1-2)Man(a1-6)]Man(b1-4)GlcNAc(b1-4)GlcNAc
Summary of the method: as §1

[12] = biological target: Gal(b1-4)GlcNAc(b1-3)Gal(b1-4)Glc
Summary of the method: as §1

[13] = biological target: Gal(b1-4)GlcNAc(b1-3)Gal(b1-4)GlcNAc
Summary of the method: as §1

[14] = biological target: Gal(b1-4)GlcNAc(b1-3)Gal(b1-4)GlcNAc(b1-3)Gal(b1-4)GlcNAc
Summary of the method: as §1

[15] = biological target: Gal(b1-4)GlcNAc(b1-3)Gal(b1-4)[Fuc(a1-3)]GlcNAc(b1-3)Gal(b1-4)[Fuc(a1-3)]GlcNAc
Summary of the method: as §1

[16] = biological target: Gal(b1-4)GlcNAc(b1-3)GalNAc
Summary of the method: as §1

[17] = biological target: Gal(b1-4)GlcNAc(b1-3)[Gal(b1-4)GlcNAc(b1-6)]GalNAc
Summary of the method: as §1

[18] = biological target: Gal(b1-4)GlcNAc(b1-6)Gal(b1-4)GlcNAc(b1-6)GalNAc
Summary of the method: as §1

[19] = biological target: Gal(b1-4)GlcNAc(b1-6)GalNAc
Summary of the method: as §1

[20] = biological target: Gal(b1-4)GlcNAc(b1-6)[Gal(b1-3)]GalNAc
Summary of the method: as §1

[21] = biological target: Gal3S(b1-3)GalNAc
Summary of the method: as §1

[22] = biological target: Gal3S(b1-3)GlcNAc
Summary of the method: as §1

[23] = biological target: Gal3S(b1-3)[Fuc(a1-4)]GlcNAc
Summary of the method: as §1

[24] = biological target: Gal3S(b1-4)Glc
Summary of the method: as §1

[25] = biological target: Gal3S(b1-4)Glc6S
Summary of the method: as §1

[26] = biological target: Gal3S(b1-4)GlcNAc
Summary of the method: as §1

[27] = biological target: Gal3S(b1-4)GlcNAc6S
Summary of the method: as §1

[28] = biological target: Gal3S6S(b1-4)GlcNAc
Summary of the method: as §1

[29] = biological target: Gal3S6S(b1-4)GlcNAc6S
Summary of the method: as §1

[30] = biological target: Gal4S(b1-4)GlcNAc
Summary of the method: as §1

[31] = biological target: Gal4S6S(b1-4)GlcNAc
Summary of the method: as §1

[32] = biological target: Gal6S(b1-4)Glc
Summary of the method: as §1

[33] = biological target: Gal6S(b1-4)Glc6S
Summary of the method: as §1

[34] = biological target: Gal6S(b1-4)GlcNAc
Summary of the method: as §1

[35] = biological target: GalNAc(a1-3)Gal
Summary of the method: as §1

[36] = biological target: GalNAc(a1-3)GalNAc
Summary of the method: as §1

[37] = biological target: GalNAc(b1-3)Gal(a1-4)Gal(b1-4)GlcNAc
Summary of the method: as §1

[38] = biological target: GalNAc(b1-3)GalNAc
Summary of the method: as §1

[39] = biological target: GalNAc(b1-4)GlcNAc
Summary of the method: as §1

[40] = biological target: Glc(a1-4)Glc
Summary of the method: as §1

[41] = biological target: Glc(a1-6)Glc(a1-6)Glc
Summary of the method: as §1

[42] = biological target: Glc(b1-4)Glc
Summary of the method: as §1

[43] = biological target: Glc(b1-6)Glc
Summary of the method: as §1

[44] = biological target: GlcA(b1-3)Gal
Summary of the method: as §1

[45] = biological target: GlcA(b1-6)Gal
Summary of the method: as §1

[46] = biological target: GlcNAc(a1-3)Gal(b1-4)GlcNAc
Summary of the method: as §1

[47] = biological target: GlcNAc(a1-6)Gal(b1-4)GlcNAc
Summary of the method: as §1

[48] = biological target: GlcNAc(b1-2)Gal(b1-3)GalNAc
Summary of the method: as §1

[49] = biological target: GlcNAc(b1-2)Man(a1-3)[GlcNAc(b1-2)Man(a1-6)]Man(b1-4)GlcNAc(b1-4)GlcNAc
Summary of the method: as §1

[50] = biological target: GlcNAc(b1-3)Gal
Summary of the method: as §1

[51] = biological target: GlcNAc(b1-3)Gal(b1-3)GalNAc
Summary of the method: as §1

[52] = biological target: GlcNAc(b1-3)Gal(b1-4)Glc
Summary of the method: as §1

[53] = biological target: GlcNAc(b1-3)Gal(b1-4)GlcNAc
Summary of the method: as §1

[54] = biological target: GlcNAc(b1-3)Gal(b1-4)GlcNAc(b1-3)Gal(b1-4)GlcNAc
Summary of the method: as §1

[55] = biological target: GlcNAc(b1-3)GalNAc
Summary of the method: as §1

[56] = biological target: GlcNAc(b1-3)[GlcNAc(b1-6)]Gal(b1-4)GlcNAc
Summary of the method: as §1

[57] = biological target: GlcNAc(b1-3)[GlcNAc(b1-6)]GalNAc
Summary of the method: as §1

[58] = biological target: GlcNAc(b1-3)[GlcNAc(b1-6)]GlcNAc(b1-4)GlcNAc
Summary of the method: as §1

[59] = biological target: GlcNAc(b1-4)Gal(b1-4)GlcNAc
Summary of the method: as §1

[60] = biological target: GlcNAc(b1-4)GlcNAc(b1-4)GlcNAc
Summary of the method: as §1

[61] = biological target: GlcNAc(b1-4)GlcNAc(b1-4)GlcNAc(b1-4)GlcNAc(b1-4)GlcNAc
Summary of the method: as §1

[62] = biological target: GlcNAc(b1-4)GlcNAc(b1-4)GlcNAc(b1-4)GlcNAc(b1-4)GlcNAc(b1-4)GlcNAc
Summary of the method: as §1

[63] = biological target: GlcNAc(b1-4)[GlcNAc(b1-6)]GalNAc
Summary of the method: as §1

[64] = biological target: GlcNAc(b1-6)Gal(b1-4)GlcNAc
Summary of the method: as §1

[65] = biological target: GlcNAc(b1-6)GalNAc
Summary of the method: as §1

[66] = biological target: Kdn(a2-3)Gal(b1-3)GlcNAc
Summary of the method: as §1

[67] = biological target: Kdn(a2-3)Gal(b1-4)GlcNAc
Summary of the method: as §1

B1: FaeGac (Escherichia coli) (protein)
chain: WMTGDFNGSVDIGGSITADDYRQKWEWKVGTGLNGFGNVLNDLTNGGTKLTITVTGNKPILLGRTKEAFATPVTGGVDGIPHIAFTDYEGASVVLRKPDGETNKNGLAYFVLPMKNAGGTKVGSVKVNASYAGVLGRGGVTSADGELLSLFADGLSSIFYGGLPRGSELSAGSAAAARTKLFGSLSRDDILGQIQRVNANVTSLVDVAGSYRENMEYTDGNVVSAAYALGIANGQTIEATFNQAVTTSTQWSAPLNVAITYY
[1]
  glycan array binding signal (z-score): -0.529
[2]
  glycan array binding signal (z-score): 0.374
[3]
  glycan array binding signal (z-score): 0.901
[4]
  glycan array binding signal (z-score): -0.855
[5]
  glycan array binding signal (z-score): 0.148
[6]
  glycan array binding signal (z-score): -0.444
[7]
  glycan array binding signal (z-score): -0.721
[8]
  glycan array binding signal (z-score): -0.314
[9]
  glycan array binding signal (z-score): 0.51
[10]
  glycan array binding signal (z-score): -0.831
[11]
  glycan array binding signal (z-score): -0.593
[12]
  glycan array binding signal (z-score): 0.509
[13]
  glycan array binding signal (z-score): -0.084
[14]
  glycan array binding signal (z-score): -0.738
[15]
  glycan array binding signal (z-score): 0.628
[16]
  glycan array binding signal (z-score): 0.035
[17]
  glycan array binding signal (z-score): -0.533
[18]
  glycan array binding signal (z-score): 0.135
[19]
  glycan array binding signal (z-score): -0.547
[20]
  glycan array binding signal (z-score): 1.21
[21]
  glycan array binding signal (z-score): -0.354
[22]
  glycan array binding signal (z-score): -0.299
[23]
  glycan array binding signal (z-score): -0.531
[24]
  glycan array binding signal (z-score): -0.656
[25]
  glycan array binding signal (z-score): -0.177
[26]
  glycan array binding signal (z-score): 0.555
[27]
  glycan array binding signal (z-score): 2.17
[28]
  glycan array binding signal (z-score): -0.035
[29]
  glycan array binding signal (z-score): 1.17
[30]
  glycan array binding signal (z-score): 0.313
[31]
  glycan array binding signal (z-score): 1.04
[32]
  glycan array binding signal (z-score): -0.652
[33]
  glycan array binding signal (z-score): 1.8
[34]
  glycan array binding signal (z-score): -0.534
[35]
  glycan array binding signal (z-score): 1.5
[36]
  glycan array binding signal (z-score): 0.689
[37]
  glycan array binding signal (z-score): -0.817
[38]
  glycan array binding signal (z-score): 1.2
[39]
  glycan array binding signal (z-score): -0.387
[40]
  glycan array binding signal (z-score): 5.96
[41]
  glycan array binding signal (z-score): 6.71
[42]
  glycan array binding signal (z-score): 4.43
[43]
  glycan array binding signal (z-score): -0.21
[44]
  glycan array binding signal (z-score): -0.705
[45]
  glycan array binding signal (z-score): 0.602
[46]
  glycan array binding signal (z-score): 0.229
[47]
  glycan array binding signal (z-score): 0.581
[48]
  glycan array binding signal (z-score): 0.196
[49]
  glycan array binding signal (z-score): -0.345
[50]
  glycan array binding signal (z-score): -0.133
[51]
  glycan array binding signal (z-score): -0.429
[52]
  glycan array binding signal (z-score): -0.621
[53]
  glycan array binding signal (z-score): -0.743
[54]
  glycan array binding signal (z-score): -0.716
[55]
  glycan array binding signal (z-score): 0.451
[56]
  glycan array binding signal (z-score): -0.533
[57]
  glycan array binding signal (z-score): 0.89
[58]
  glycan array binding signal (z-score): -0.614
[59]
  glycan array binding signal (z-score): 0.012
[60]
  glycan array binding signal (z-score): 0.042
[61]
  glycan array binding signal (z-score): -0.377
[62]
  glycan array binding signal (z-score): -0.635
[63]
  glycan array binding signal (z-score): 0.219
[64]
  glycan array binding signal (z-score): 1.37
[65]
  glycan array binding signal (z-score): -0.127
[66]
  glycan array binding signal (z-score): -0.579
[67]
  glycan array binding signal (z-score): -0.204
